# Experimental data published in article PMC4336329 (PLoS ONE, 2015).
# Screen size: about 310,000 compounds; about 2,200 (0.71%) showed an effect of 50% or more. Effects have a minus sign here. The list shows a part of the results.
# Target: human ether-à-go-go-related gene (hERG) potassium channel (human, UniProt Q12809)
# Experiment: primary screen, population patch clamp on CHO cells stably expressing hERG
# Chain of human ether-à-go-go-related gene (hERG) potassium channel (Q12809 whole entry, looked up): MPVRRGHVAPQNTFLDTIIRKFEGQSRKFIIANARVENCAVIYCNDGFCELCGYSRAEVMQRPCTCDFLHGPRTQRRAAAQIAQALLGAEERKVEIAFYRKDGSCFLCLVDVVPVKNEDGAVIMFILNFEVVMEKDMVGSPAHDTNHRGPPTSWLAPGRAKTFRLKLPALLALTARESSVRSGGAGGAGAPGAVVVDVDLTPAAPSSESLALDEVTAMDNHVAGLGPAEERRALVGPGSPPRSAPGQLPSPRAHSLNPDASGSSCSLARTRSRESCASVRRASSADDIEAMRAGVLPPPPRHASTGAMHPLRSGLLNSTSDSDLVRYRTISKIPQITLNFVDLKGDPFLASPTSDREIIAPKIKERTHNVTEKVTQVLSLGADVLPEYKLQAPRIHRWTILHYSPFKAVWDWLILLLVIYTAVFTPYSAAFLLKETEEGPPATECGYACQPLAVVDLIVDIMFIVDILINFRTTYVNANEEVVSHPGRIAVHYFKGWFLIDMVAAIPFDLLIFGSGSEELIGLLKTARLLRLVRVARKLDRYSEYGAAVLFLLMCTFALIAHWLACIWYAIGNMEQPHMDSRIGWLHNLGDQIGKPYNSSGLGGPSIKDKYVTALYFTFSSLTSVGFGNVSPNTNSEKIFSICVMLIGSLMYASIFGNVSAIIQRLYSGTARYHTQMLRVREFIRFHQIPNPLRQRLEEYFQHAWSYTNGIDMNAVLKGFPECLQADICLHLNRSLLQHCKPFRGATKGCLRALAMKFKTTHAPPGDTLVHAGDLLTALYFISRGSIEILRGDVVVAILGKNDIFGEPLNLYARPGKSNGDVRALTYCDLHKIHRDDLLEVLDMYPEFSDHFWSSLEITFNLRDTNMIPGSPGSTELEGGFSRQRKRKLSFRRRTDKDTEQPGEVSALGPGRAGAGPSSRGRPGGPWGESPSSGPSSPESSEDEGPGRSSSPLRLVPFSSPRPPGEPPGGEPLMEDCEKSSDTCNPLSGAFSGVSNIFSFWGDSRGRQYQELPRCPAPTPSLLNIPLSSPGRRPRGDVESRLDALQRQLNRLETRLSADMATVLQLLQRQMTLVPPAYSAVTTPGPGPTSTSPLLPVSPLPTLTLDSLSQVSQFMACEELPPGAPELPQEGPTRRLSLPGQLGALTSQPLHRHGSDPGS
row,Compound,"hERG current change (%, negative = inhibition) at 1uM"
1,CCCOc1ccc(CCN2CCC(=O)NC2=O)cc1C,5.45%
2,O=c1c2ccccc2ncn1CCOCCOc1cccc(Br)c1,1.26%
3,O=C(NS(=O)(=O)N1CCCC1)C1=C(N2CCCC2)COC1=O,16.2%
4,COc1ccc(NC(=O)COC(=O)/C=C/c2cnc3ccccc3n2)cc1,10%
5,Cc1cccc(-n2ncc3c(N4CCC(C)CC4)ncnc32)c1,15.1%
6,Cc1cccc(/C=N/NC(=O)c2ccc(Br)cc2)c1,9.11%
7,CC(CN1CCOCC1)OC(=O)c1ccccc1Br.Cl (stereo not shown),8.73%
8,CC(C)N1CCN(Cc2nc3c(s2)CCCC3)CC1CCO (stereo not shown),13%
9,COC(=O)CNc1nc(-c2cccnc2)nc2ccccc12,20%
10,CC1Cc2ccccc2N1C(=O)Cn1cnc2ccccc21 (stereo not shown),13.3%
11,Cc1ccc(S(=O)(=O)Nc2ccc3c(c2)nc(CCN2CCCC2)n3C)cc1,-13.7%
12,CCC(=O)Nc1cc2nn(-c3ccc(OC)cc3)nc2cc1C,9.28%
13,CCn1c(=O)c2sccc2n2c(CCCC(=O)NCCc3ccc(S(N)(=O)=O)cc3)nnc12,18%
14,CN1CCC(=NNC(=O)CN(c2ccc(Oc3ccccc3)cc2)S(C)(=O)=O)CC1,-4.45%
15,O=C(COc1ccc(S(=O)(=O)NC2CCCCC2)cc1Cl)Nc1ccc2c(c1)OCO2,9.16%
16,Cc1cccc(C)c1OCc1cc(C(=O)N2CCC[C@H]2C(N)=O)no1,13.1%
17,O=C(NCCCN1CCOCC1)c1cc(C(=O)C2CCCCC2)c[nH]1,12.7%
18,CCOCCCNC(=O)c1c[nH]c2c(CC)cccc2c1=O,20.9%
19,CCCc1nnc(NC(=O)c2c(O)c3cccc4c3n(c2=O)CC4)s1,15.5%
20,O=C(OCc1nnc(-c2ccccc2)o1)C1=COCCO1,3.92%
21,N#C/C(=C\c1ccc([N+](=O)[O-])cc1)c1ccccn1,6.02%
22,Cc1cc(C)n2c(SCC(=O)N(C)C3CCS(=O)(=O)C3)nnc2n1 (stereo not shown),5.59%
23,COc1ccc(OC)c(NC(=O)CSc2nnc3ccc(-c4ccccn4)nn23)c1,12.5%

row,Compound,"hERG current change (%, negative = inhibition) at 1uM"
1,COc1ccc(OC)c(NC(=O)c2cccc(Cn3cc(Br)c([N+](=O)[O-])n3)c2)c1,-1.68%
2,CC(C)NC(=O)c1nc2ccccc2s1,3.72%
3,COc1ccc(OCc2nn3c(Cn4cnc5ccccc54)nnc3s2)cc1,-2.93%
4,CCc1c(C)sc(NC(=S)NC(C)C2CCCO2)c1C(=O)OC (stereo not shown),3.79%
5,O=C(/C=C/c1ccc(Br)cc1)c1ccc(NC(=O)c2ccco2)cc1,10.4%
6,Cc1ccccc1NC(=O)c1cccc(C(F)(F)F)c1,2.16%
7,Cc1ccc2nc3c(cc2c1)c(NC(=O)C(C)(C)C)nn3CC(C)C,7.75%
8,NC(=O)N/N=C/C=C/c1ccccc1,14.5%
9,O=c1cc(CSc2nnnn2-c2ccccc2)nc2nc[nH]n12,8.55%
10,CC(=O)Nc1ccc(NC(=O)C2CC(=O)N(c3ccccc3Cl)C2)cc1 (stereo not shown),9.11%
11,CC(=O)c1ccc(NC(=O)c2cnn3ccccc23)cc1,11.1%
12,O=C(COC(=O)c1ccc(Cl)c(S(=O)(=O)N2CCCCC2)c1)NCC1CCCO1 (stereo not shown),1.02%
13,CCCCOP(=O)(c1ccc(N(C)C)cc1)C(O)c1ccc(OC)c(OC)c1 (stereo not shown),8.62%
14,Cc1cc(NC(=O)CCC(=O)N(c2ccc(C)c(F)c2)C(C(=O)NC2CCCC2)c2ccco2)no1 (stereo not shown),7.44%
15,COc1ccc(-c2cc(-c3ccccc3)nc(SCC(=O)Nc3ncc(C)s3)c2C#N)cc1,5.39%
16,CC(C)n1c(SC2CCOC2=O)nc2ccccc21 (stereo not shown),3.49%
17,Fc1cccc(Cl)c1CNCc1cccnc1,11.1%
18,COc1ccc(C(C)=O)cc1CN1C(=O)NC2(CCCCCCC2)C1=O,19.8%
19,O=C(Cn1c(=O)oc2ccccc21)NCCc1ccccc1Cl,12.6%
20,O=S(CC(O)COCc1ccc(Cl)cc1)c1ccccn1 (stereo not shown),18.6%
21,CC(=O)Nc1ccc(NC(=O)C(C)OC(=O)CNS(=O)(=O)c2cccc(Cl)c2)cc1 (stereo not shown),24.9%
22,CC(C)NC(=O)c1ccc(Sc2ccccc2)c([N+](=O)[O-])c1,7.04%
23,COc1cccc(C2NC(CC(C)C)(C(=O)O)C3C(=O)N(Cc4ccccc4)C(=O)C23)c1O (stereo not shown),-0.961%

row,Compound,"hERG current change (%, negative = inhibition) at 1uM"
1,CCCNC(=O)c1oc2ccc3c(c2c1C)C(=O)CC(C)(C)O3,13.9%
2,O=C(Nc1cccc(O)c1)c1ccc(NC(=O)C2CCCO2)cc1 (stereo not shown),15.4%
3,CC(NC(=O)C1CCN(C(=O)[C@@H]2Cc3ccccc3CN2C(=O)OC(C)(C)C)CC1)c1ccccc1 (stereo partly shown),9.81%
4,Cn1cc(Br)cc2nc(C(F)(F)F)nc1-2,11.2%
5,Cc1cccc(C)c1NC(=O)C(NC(=O)CN1C(=O)c2ccccc2C1=O)c1ccccc1 (stereo not shown),9.56%
6,N#Cc1c(N)nc2c(c1-c1ccccc1)CCCC2,5.7%
7,COC(=O)c1ccc(CO/N=C/c2ccc(OC)cc2OC)cc1,11.5%
8,CC(Sc1nc2c(c(=O)[nH]1)CCCC2)C(=O)Nc1ccc(Br)cn1 (stereo not shown),4.65%
9,CCN1CCN(Cc2cc(=O)oc3ccc(Cl)cc23)CC1,8.55%
10,CCOc1cc(C(=O)OCC(=O)Nc2cccc(C)c2)ccc1OCC(=O)N1CCOCC1,16.4%
11,CC(c1ccccc1)C1OCC(C[N+]2(C)CCCCC2)O1.[I-] (stereo not shown),15.1%
12,CCOC(=O)N1CCN(C(=O)c2ccc3nc(-c4ccccc4)c(-c4ccccc4)nc3c2)CC1,6.99%
13,CCOC(=O)/C=c1\s/c(=C\c2ccc(C#N)cc2)c(=O)n1CC(=O)NCc1ccco1,-1.93%
14,O=C(COC(=O)c1cc(=O)[nH]c2ccccc12)c1ccc(Br)cc1,8.04%
15,COc1cccc(C(C(=O)NCc2ccccc2)N(C(=O)c2csnn2)C2CC2)c1 (stereo not shown),8.82%
16,Cn1nc(C(=O)N2CCc3ccccc3C2)c2ccccc2c1=O,8.45%
17,O=[N+]([O-])c1cc(CS(=O)(=O)Oc2ccc(Cl)cc2)c(O)c([N+](=O)[O-])c1,13.5%
18,COC(=O)C1C(=O)NCC1c1ccccc1 (stereo not shown),18.8%
19,CC(C)COP(=O)(OCC(C)C)C(O)c1ccccc1F (stereo not shown),5.11%
20,Cc1noc(C)c1CSc1ncnc2sc3c(c12)CCCCC3,9.86%
21,O=C(CSc1nnnn1-c1ccc(C(=O)O)cc1)NC1CCCCC1,-6.2%
22,O=C1CC(c2ccc(F)cc2)CC(O)=C1C1NCCc2ccccc21 (stereo not shown),16.3%
23,COc1ccccc1-c1ccc(SCc2ccccc2F)nn1,6.4%

row,Compound,"hERG current change (%, negative = inhibition) at 1uM"
1,Cc1ccc(C2N(c3cc(C)on3)C(=O)C3CCCN32)cc1 (stereo not shown),14.9%
2,Cc1cccc2nc3ccccc3cc12,12.6%
3,O=C(Cc1ccc(F)cc1)Nc1ccc2[nH]ncc2c1,13.4%
4,O=C(NCCN1CCCC1)c1ccc2c(c1)N(Cc1ccccc1)C(=O)c1ccccc1S2(=O)=O,13.1%
5,COc1cccc(/C=N/NC(=O)CCCc2ccc(OC)c(C)c2)c1,2.8%
6,Cc1onc(-c2ccccc2)c1-c1nc2cc(Cl)ccc2c(=O)o1,9.04%
7,COc1ccc(NC(=O)C2=C(C)NC(=S)NC2c2ccc(O)c(OC)c2)cc1 (stereo not shown),13.9%
8,Cc1cccc(OCC(=O)O/N=C(\N)c2ccncc2)c1,11.2%
9,O=C(CS(=O)(=O)c1c[nH]c2ccccc12)N1CCCc2ccccc21,24.2%
10,CCCc1cc(=O)oc2c(CNc3ccc(OCC)cc3)c(O)ccc12.Cl,8.53%
11,COCCn1c(N)c(N(Cc2ccccc2)C(=O)C2CCCCC2)c(=O)[nH]c1=O,8.74%
12,COc1ccc(NC(=O)CNC(=O)c2cccs2)cc1Cl,13.6%
13,CC(Oc1ccc(F)cc1)C(=O)N1CCN(c2ncccn2)CC1 (stereo not shown),1.96%
14,Cc1nn(C)c(Cl)c1/C=C/C(=O)O,15.2%
15,CN(C)c1ccc(C2CC(=O)C=C(Nc3ccccc3N)C2)cc1 (stereo not shown),13.8%
16,CSc1nc(C)c(Oc2ccccc2)c(=O)n1C,10.4%
17,O=C(CSc1nc2ccccc2o1)NC(=O)NCc1ccccc1,-0.561%
18,Cc1ccc(/C=C/S(=O)(=O)NCC(=O)OCC(=O)N2CC(=O)Nc3ccccc32)cc1,3.46%
19,Cc1ccc(C(=O)N/C(=C/c2ccco2)C(=O)NCc2ccco2)cc1,7.08%
20,CC(C)(C)c1cc(OC(=O)c2ccncc2)ccc1O,3.13%
21,Br.N=C1c2ccccc2CN1NC(=O)c1ccc(Br)cc1,7.36%
22,CCC(C(=O)O)n1c2ccccc2c2cn[nH]c(=O)c21 (stereo not shown),15.7%
